In the supplement of paper PMC11417369:
± gives the standard deviation of the averaged measurements. The list shows a part of the results.

The sequences below were run on PfAP2-LT AP2 domain (GST-tagged) (assay: gcPBM binding intensity (ln(normalized median fluorescence intensity)); higher = stronger DNA binding).
Method in brief: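 Plasmodium falciparum DNA-binding domains carrying a GST tag were expressed in E. coli and applied for 1 h, at about 25 μg on average, to an Agilent 4 × 180k array. The array held primer-extended double-stranded 36-bp intergenic genomic probes together with negative controls, and binding took place in 1× PBS with 1% milk, 0.2 mg/ml BSA, 0.5% salmon testes DNA and 0.03% Triton X-100. An Alexa488 anti-GST antibody detected bound protein, and the array was scanned at 488 nm. Binding intensity is taken as the highest Masliner-normalised natural-log median intensity across replicate spots of either probe orientation.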

Sequence	gcPBM binding intensity (ln)
ATATATATATATAATTGTACATATAATATAATATTA [XGTACX_site5216]	8.63 ± 0.42
AACACATGCTTGGTCACACACGTATGCATATTTAAA [CACACA_site5206]	9.16 ± 0.29
AATATGTTATAAATATGTTATAAATAATAAATAAAT [GTGCAC_negctrl_site135]	8.72 ± 0.51
ATATATATTATATATAGTACTTTTTTGCGCAAATAT [XGTACX_site6849]	8.84 ± 0.42
TCCTTTTTGAAATGTTGTACTTTTTTTATCTTTCAT [XGTACX_site953]	8.81 ± 0.49
TACATATATTTTTATACATGCATAACTTAGGACTTT [TGCATGCA_site113]	8.62 ± 0.35
TACCATATTTCTTCAAGTACGCATTATGTTAAAAAG [XGTACX_site345]	8.51 ± 0.38
ATATTTATATATATCATACACACTAATATGTATATT [CACACA_site3409]	8.95 ± 0.42
TAATTATATATATACACACACATACAGACAAATAAA [CACACA_site3412]	9.59 ± 0.28
GAAATTTGTTATTGCACACAAATTTTTCTTTTTTTA [CACACA_site2339]	8.79 ± 0.35
TTTTATGAAAAGTATTGTACGTATAATTTATATGTA [XGTACX_site1639]	8.57 ± 0.35
ACATAAGACACAAATACACACAAAAATATGTAACAA [CACACA_site7836]	9.37 ± 0.38
TATGTATGTGCTTGTGCGCACCGATAATATAGCCAA	8.95 ± 0.38
TGCTATAATTTATATACACACAAATATATACGCATA [CACACA_site4096]	8.94 ± 0.36
TCTCATAGTAGACACACACACACACGCACATATATA [CACACA_site6916]	10.1 ± 0.31
ATAATAATTAACCTATGTACATAGGAAAGTCATAAA [XGTACX_site4387]	8.93 ± 0.43
AAAAAAAAAAAACACACACACACATACACATACATA [CACACA_site2858]	10.1 ± 0.22
GAAGAAAAATAAAAAGTGCAAAAAAAGTAAAAATTT [GTGCAC_site9897]	9 ± 0.51
AATGAATGTAAGAAAATACACACTAGTATAGTAACA [CACACA_site1955]	9.21 ± 0.38
TTGGAAAAAGTGAAATGTACATATATATTTATTATT [XGTACX_site6946]	8.71 ± 0.54
AATAATAAAGTGAACACACACATATAACATCTATAT [CACACA_site7868]	9.25 ± 0.37
AAAGGATTTATACTAGTGCAAAAATATAAAAATATA	8.76 ± 0.53
GAAGTTTTTTAAAGATGTACTTTTTAAAAATAATCT [XGTACX_site263]	8.28 ± 0.4

Sequence	gcPBM binding intensity (ln)
TCCATATATGCCTTATGTACATATACCAAATTAACC [XGTACX_site6513]	8.79 ± 0.42
TTTGGCTAGTTAGGCCGTACATGTAAATAATATATA [XGTACX_site1138]	8.68 ± 0.42
TTCTTATAAATATACACACACAAAATATCTACAATG [CACACA_site6487]	9.16 ± 0.39
CCTTAAAATAAGATATGTACGCAAAGGAAAACAAAG [XGTACX_site6057]	8.96 ± 0.42
TTATAAGATTTATGTACACACATATACTCACCTCTA [CACACA_site729]	9.11 ± 0.55
TGTGTAAGATCTTGGATGATGATAAGAATCTACTAG [CACACA_negctrl_site1167]	8.64 ± 0.5
GACACAAAAAAATAATAATAATAATAATAATAAATA [XGTACX_negctrl_site145]	8.71 ± 0.39
AATATAAATACTCCTACACACATATATATATATATA [CACACA_site3010]	9.81 ± 0.23
ACAAATACAAAAAAAGGTACACACATAATATATTTA [XGTACX_site5515]	9.26 ± 0.53
TTTGTTTTTAATTTCGCACACACCTTGTGGAAAAAA [CACACA_site577]	8.98 ± 0.3
AAATATTTTATACTTGCACACAAAATATATTAAAAT [CACACA_site8606]	8.89 ± 0.38
ATCCCCATAAAAAATACACACAAATATTTATACATA [CACACA_site1001]	9.05 ± 0.35
ATATATTAAAAGGATTAGGAAAAAATATGATTTATC [TGCATGCA_negctrl_site405]	8.47 ± 0.47
ATAGAATCTGGTAGCTGTACGAGTCGTAGAGTGTAG [XGTACX_site2016]	9.13 ± 0.45
AAGTAAAAAAAAAAAAGTACATGTTTATATAAATAT [XGTACX_site4741]	8.81 ± 0.51
ATAAATTAACATTAAAGTACATTTTAATAAATATTA [XGTACX_site3647]	8.31 ± 0.52
ATACATATATATAATACACACATAAATGTAACATTT [CACACA_site3518]	9.12 ± 0.35
GATCAAAATTATAGAAGTACTTTATATAAATAAAAT [XGTACX_site8161]	8.63 ± 0.45
TATATATATAAGATTGTGCACATTAAAATGATAGAA [GTGCAC_site9621]	8.9 ± 0.5
TCATAAATACATTTTGCATGTAAAATATAGAATACA [TGCATGCA_site755]	8.74 ± 0.42
TCTATAAAATATAAAAGTACGTATCAATAATTAAAA [XGTACX_site8469]	8.69 ± 0.49
ATTACGATAGAGAAATGTACATATATATATGTAAGT [XGTACX_site1200]	9.12 ± 0.41
TATTTTATAAATTAATGTACATAAATTATATCTACT [XGTACX_site3625]	8.55 ± 0.43

Sequence	gcPBM binding intensity (ln)
TGATAAGAAAAAGACTTTTCCTTCTTACTTTCTATG [CACACA_negctrl_site782]	8.55 ± 0.59
CAAAATAAATAATTTGGTACACATAAAAAAAAAAAA [XGTACX_site8380]	8.79 ± 0.69
AATAATGTTTTTATATCACACACAAATATTAAATGA [CACACA_site8074]	8.83 ± 0.47
AAAATTGGTGAAAATGAAAATATGATTATATGTATA [XGTACX_negctrl_site505]	8.56 ± 0.53
CCATAAAACTATAATACACACATATAGATTAACATA [CACACA_site7849]	9.07 ± 0.35
GATATAATTATGTGTACACAATTTTTTTTTTTTTTT [CACACA_site4501]	8.79 ± 0.43
AAATAAAGGAAATAAAAAGAAACCAATTTCGAATAT [CACACA_negctrl_site953]	8.77 ± 0.55
TTTATATGTATTAATTGTACACATATAATGTGTTTT [XGTACX_site3064]	8.98 ± 0.42
TTTTTTTTAAAACTATGTACGTAAAAATTGTAGTTT [XGTACX_site2302]	8.43 ± 0.63
ATATGTATGTATAATCGTACAAAATTTGGCGATCTT [XGTACX_site8698]	8.85 ± 0.47
AGAACTTTTAATGGATGTACAGTTATTTTATTATTT [XGTACX_site6226]	8.75 ± 0.42
ATATAGTAAATTGGTAGTACATAAAATGATTTTATG [XGTACX_site4143]	8.74 ± 0.49
TATATAGATATGATAGTGCATTTTTAGAAAACATAA [GTGCAC_site9962]	8.6 ± 0.45
TTATGTAGCTAGCTATAAACTTTTTTTTATTTAAAA [CACACA_negctrl_site1297]	8.21 ± 0.36
AACAGATAAAAGGGTACACACATATATACAAGTACA [CACACA_site7959]	9.21 ± 0.42
ATATATATATATATATGTACATACTATACAATAATT [XGTACX_site3546]	9.75 ± 0.24
ATTATTATTAAATACACACACATACCTCCATGTTAG [CACACA_site3430]	9.42 ± 0.34
AAAGGGAATTATGGCTGTACGCATTTTATAAATAGC [XGTACX_site5878]	8.88 ± 0.4
TTGTTATTATATTACGCATGCATCATTTATTTGCAC [TGCATGCA_site525]	9.24 ± 0.43
TTTTTTTTTCTTCTTTTCAAATTTAAGAAATTATAA [CACACA_negctrl_site18]	7.98 ± 0.45
TGCTGTATATTTTTCTGTACACATTTATATATTCCA [XGTACX_site6244]	8.96 ± 0.43
AAGAATAAGAAGAAGGATCCCCTTCAAAAAAAAAAA [TGCATGCA_negctrl_site525]	8.56 ± 0.63
ATGAAGAATTTATATTGTACCCATTTTTATGTAAAT [XGTACX_site2528]	8.7 ± 0.43

Sequence	gcPBM binding intensity (ln)
AAAAAAAAAACATACACACATACATACATATATATT [CACACA_site949]	9.28 ± 0.27
CGAAAAAGTGATATAGTGCAAAATTTTCATTTCTCT	8.86 ± 0.49
AATATTTTTGTCGTTAGTACATAAAAAATAATAATA [XGTACX_site3074]	8.43 ± 0.4
ATAATTTTATCATATATATATATATATAAATACTTA [CACACA_negctrl_site743]	8.72 ± 0.3
ATGCTTTTATGCACACGTACAAAAATATTATATAAT [XGTACX_site5589]	8.82 ± 0.32
AAAAATTGAATTTTTTTTTTTTTTTTGAGAAGGAAA [CACACA_negctrl_site1196]	7.89 ± 0.4
AATAATAAAGTGAACACACACATATAATATATATAT [CACACA_site4143]	9.38 ± 0.35
ATAATTAAAATGCTCACACACATAAAAAAAAATTAA [CACACA_site2149]	8.94 ± 0.46
AATAATATATTTAGGGGTACATAATAATATATTTTA [XGTACX_site8366]	8.66 ± 0.3
AAAAATAGAATAAATACACACCCGTGTAACGGATTT [CACACA_site3372]	8.87 ± 0.45
TTTATAAAAATGAACACACACATATAAATATAAATA [CACACA_site7607]	9.17 ± 0.37
TTTTAAATATGAACATGTACATGTAAATTTACATGT [XGTACX_site4573]	8.64 ± 0.38
TATTTTTATAAGTAAAAGGAGCACAGTTAAAGGATC [XGTACX_negctrl_site362]	8.71 ± 0.41
TTTTAATTTATTAATTGTACATGTATTTTAAGATTA [XGTACX_site8417]	8.61 ± 0.38
TTATTATTAAAAAAAAGTACAGAATTGAATAATACA [XGTACX_site651]	8.53 ± 0.46
ATTTTTGTGTATTAATGTACTTTATGCATATTTGAC [XGTACX_site3353]	9.05 ± 0.34
TAAACATTTGGCTGATGTACTTGCTACCTTAAATCA [XGTACX_site5514]	8.63 ± 0.55
TTGGTCTTTTAAAAAAGTACAAAAAAAAAAAAAAAA [XGTACX_site1665]	8.08 ± 0.55
TATAAATAAAGATATACACACATATAAATATTTTTC [CACACA_site7798]	8.88 ± 0.44
TTACGATCATCAATATGTACATATATATATATATAT [XGTACX_site4301]	9.625 ± 0.035
